No constants are given. Whether binding was seen depends on the method and setting. In cells and extracts the contact can be indirect. Some binding calls cover weakened binding; strength is not graded here. For some assays here: Where a sequence is shown, tags or fusion partners need not be part of it.
How the values were obtained:
HA-TRIM6 (human) = HA-TRIM6 (human) (UniProt Q9C030); assay: co-IP; HEK293T cells transfected with HA-TRIM6 and Flag-cGAS, Flag-STING, Flag-TBK1 or Flag-IRF3 for 48 h; immunoprecipitation with anti-HA, immunoblot
[1] = molecular target: HA-cGAS (full length) (human) (UniProt Q8N884); assay: co-IP; HEK293T cells transfected with HA-cGAS and Flag-TRIM6 or its truncated mutants for 48 h; immunoprecipitation with anti-HA, immunoblot
[2] = molecular target: cGAS (cyclic GMP-AMP synthase), endogenous (human (endogenous in MKN28 and SNU668)) (UniProt Q8N884); assay: co-IP; endogenous proteins in MKN28 and SNU668 cells; immunoprecipitation with an anti-cGAS antibody, rabbit IgG as control

The chains behind the UniProt entries cited, without tags or fusion partners. Where a name states a change or a piece, a line headed by the entry shows the natural chain unless it says otherwise. A line that says so, or that is headed by a name, gives the form on record, which may keep a tag or linker.
UniProt Q9C030: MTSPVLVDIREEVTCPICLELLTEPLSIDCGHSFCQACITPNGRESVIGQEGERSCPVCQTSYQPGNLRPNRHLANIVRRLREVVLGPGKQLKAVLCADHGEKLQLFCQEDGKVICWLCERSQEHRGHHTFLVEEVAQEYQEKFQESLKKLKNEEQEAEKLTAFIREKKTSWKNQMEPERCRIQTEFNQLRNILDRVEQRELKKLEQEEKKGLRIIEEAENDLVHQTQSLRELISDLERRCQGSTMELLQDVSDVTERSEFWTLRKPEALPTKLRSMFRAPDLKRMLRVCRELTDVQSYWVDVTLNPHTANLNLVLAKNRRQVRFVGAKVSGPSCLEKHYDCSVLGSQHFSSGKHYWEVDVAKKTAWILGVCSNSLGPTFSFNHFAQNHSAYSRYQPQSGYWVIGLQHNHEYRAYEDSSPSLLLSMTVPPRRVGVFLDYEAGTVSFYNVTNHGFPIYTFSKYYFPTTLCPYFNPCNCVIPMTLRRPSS
HA-TRIM6 (Q9C030-2, form named): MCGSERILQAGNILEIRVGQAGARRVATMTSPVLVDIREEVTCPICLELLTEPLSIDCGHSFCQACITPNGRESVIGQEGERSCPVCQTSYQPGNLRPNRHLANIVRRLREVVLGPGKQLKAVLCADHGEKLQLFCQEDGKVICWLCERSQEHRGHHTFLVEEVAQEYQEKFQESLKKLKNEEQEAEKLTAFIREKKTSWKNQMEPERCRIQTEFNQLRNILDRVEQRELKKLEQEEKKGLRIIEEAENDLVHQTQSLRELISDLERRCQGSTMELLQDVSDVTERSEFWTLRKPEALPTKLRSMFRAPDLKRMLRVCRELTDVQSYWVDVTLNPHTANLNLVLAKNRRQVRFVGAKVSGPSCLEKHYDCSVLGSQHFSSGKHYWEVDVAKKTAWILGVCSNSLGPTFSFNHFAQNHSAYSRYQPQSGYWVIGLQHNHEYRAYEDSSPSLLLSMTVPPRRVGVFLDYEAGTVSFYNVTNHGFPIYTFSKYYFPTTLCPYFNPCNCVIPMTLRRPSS
UniProt Q8N884: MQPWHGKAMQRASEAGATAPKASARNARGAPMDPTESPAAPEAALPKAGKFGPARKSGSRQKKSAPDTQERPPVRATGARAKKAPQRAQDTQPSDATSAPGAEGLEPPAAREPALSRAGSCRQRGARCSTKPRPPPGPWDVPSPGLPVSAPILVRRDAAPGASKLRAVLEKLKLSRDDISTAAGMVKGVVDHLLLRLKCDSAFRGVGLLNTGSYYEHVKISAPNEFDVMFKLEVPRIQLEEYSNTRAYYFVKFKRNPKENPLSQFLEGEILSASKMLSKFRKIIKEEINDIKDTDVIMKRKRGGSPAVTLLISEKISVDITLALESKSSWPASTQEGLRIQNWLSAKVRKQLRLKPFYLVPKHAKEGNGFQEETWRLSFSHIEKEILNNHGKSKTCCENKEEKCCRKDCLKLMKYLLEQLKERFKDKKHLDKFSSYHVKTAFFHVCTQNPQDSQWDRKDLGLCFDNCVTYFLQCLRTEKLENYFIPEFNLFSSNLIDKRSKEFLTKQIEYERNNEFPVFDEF
UniProt Q86WV6: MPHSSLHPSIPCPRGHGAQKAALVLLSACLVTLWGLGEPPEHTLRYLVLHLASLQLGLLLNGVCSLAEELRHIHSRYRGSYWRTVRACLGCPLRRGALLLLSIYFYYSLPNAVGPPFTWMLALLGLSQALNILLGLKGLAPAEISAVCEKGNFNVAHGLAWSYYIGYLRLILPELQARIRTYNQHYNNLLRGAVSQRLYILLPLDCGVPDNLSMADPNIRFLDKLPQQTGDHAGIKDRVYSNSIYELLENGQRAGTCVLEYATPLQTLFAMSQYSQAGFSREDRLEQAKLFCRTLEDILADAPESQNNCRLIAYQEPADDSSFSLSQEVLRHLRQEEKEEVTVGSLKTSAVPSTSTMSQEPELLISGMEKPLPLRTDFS

binding (HA-TRIM6 (human)) | Molecule | also measured
no binding | Flag-STING (from UniProt Q86WV6 1-379) | –
– | Flag-TRIM6 (full length), expressed in HEK293T cells (from UniProt Q9C030-2 1-516) (enzyme) | binding [1]: binds
– | TRIM6, endogenous (from UniProt Q9C030 1-488) (enzyme) | binding [2]: binds
no binding | Flag-IRF3 (protein, UniProt Q14653 1-427) MGTPKPRILPWLVSQLDLGQLEGVAWVNKSRTRFRIPWKHGLRQDAQQEDFGIFQAWAEATGAYVPGRDKPDLPTWKRNFRSALNRKEGLRLAEDRSKDPHDPHKIYEFVNSGVGDFSQPDTSPDTNGGGSTSDTQEDILDELLGNMVLAPLPDPGPPSLAVAPEPCPQPLRSPSLDNPTPFPNLGPSENPLKRLLVPGEEWEFEVTAFYRGRQVFQQTISCPEGLRLVGSEVGDRTLPGWPVTLPDPGMSLTDRGVMSYVRHVLSCLGGGLALWRAGQWLWAQRLGHCHTYWAVSEELLPNSGHGPDGEVPKDKEGGVFDLGPFIVDLITFTEGSGRSPRYALWFCVGESWPQDQPWTKRLVMVKVVPTCLRALVEMARVGGASSLENTVDLHISNSHPLSLTSDQYKAYLQDLVEGMDFQGPGES | –
no binding | Flag-TBK1 (enzyme, UniProt Q9UHD2 1-729) MQSTSNHLWLLSDILGQGATANVFRGRHKKTGDLFAIKVFNNISFLRPVDVQMREFEVLKKLNHKNIVKLFAIEEETTTRHKVLIMEFCPCGSLYTVLEEPSNAYGLPESEFLIVLRDVVGGMNHLRENGIVHRDIKPGNIMRVIGEDGQSVYKLTDFGAARELEDDEQFVSLYGTEEYLHPDMYERAVLRKDHQKKYGATVDLWSIGVTFYHAATGSLPFRPFEGPRRNKEVMYKIITGKPSGAISGVQKAENGPIDWSGDMPVSCSLSRGLQVLLTPVLANILEADQEKCWGFDQFFAETSDILHRMVIHVFSLQQMTAHKIYIHSYNTATIFHELVYKQTKIISSNQELIYEGRRLVLEPGRLAQHFPKTTEENPIFVVSREPLNTIGLIYEKISLPKVHPRYDLDGDASMAKAITGVVCYACRIASTLLLYQELMRKGIRWLIELIKDDYNETVHKKTEVVITLDFCIRNIEKTVKVYEKLMKINLEAAELGEISDIHTKLLRLSSSQGTIETSLQDIDSRLSPGGSLADAWAHQEGTHPKDRNVEKLQVLLNCMTEIYYQFKKDKAERRLAYNEEQIHKFDKQKLYYHATKAMTHFTDECVKKYEAFLNKSEEWIRKMLHLRKQLLSLTNQCFDIEEEVSKYQEYTNELQETLPQKMFTASSGIKHTMTPIYPSSNTLVEMTLGMKKLKEEMEGVVKELAENNHILERFGSLTMDGGLRNVDCL | –

— publication PMC12355757, “TRIM6 ablation reverses ICB resistance in MSS gastric cancer by unleashing cGAS-STING-dependent antitumor immunity” (Journal of Experimental & Clinical Cancer Research : CR, 2025)
